Measurements reported in PMC12711579.
Results are given in words; binding and its absence hold for the method and conditions named. Some binding calls cover weakened binding; strength is not graded here.

Target: HEI10 (A. thaliana) (UniProt F4HRI2)
Experiment: two-hybrid; Clontech Matchmaker Gold; pGADT7 (AD) and pGBKT7 (BD) fusions co-transformed into Y2H Gold yeast; serial dilutions on DDO, TDO (−His/−Leu/−Trp, screens for weak interactions) and QDO (−His/−Ade/−Leu/−Trp, screens for strong interactions); 3–5 days at 30 °C

B1: HEI10 (protein, UniProt F4HRI2 1-304)
chain: MRCNACWRDLEGRAISTTCGHLLCTEDASKILSNDGACPICDQVLSKSLMKPVDINPNEEWINMAMAGISPQILMKSAYRSVMFYIAQRDLEMQYKMNRVVAQCRQKCEGMQAKFSEKMEQVHTAYQKMGKRCQMMEQEVENLTKDKQELQEKFSEKSRQKRKLDEMYDQLRSEYESVKRTAIQPANNFYPRHQEPDFFSNPAVNMMENRETIRKDRSFFSPATPGPKDEIWPARQNSSNSGPFDISTDSPAIPSDLGNRRAGRGHPVYGGGGTANPQSTLRNLILSPIKRSQLSRSRPQLFTL
  binding: binds
